# Results from the supplement of paper PMC4604168 (melanoma cell lines).
# Some of the results follow. Single values are uncertain, as repeats are few or missing.
# System: WM115
# Assay: cell count relative to DMSO control; melanoma cells; higher = more viable cells
# Conditions: library dose: standard library concentration; 72 h
# 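Note: cells treated in 1,536-well plates, then fixed and DAPI-stained, with nuclei counted from automated high-throughput microscope images.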
row,Compound,cell count [%]
1,"O=C(Nc1ccccc1)c1cc([N+](=O)[O-])ccc1Cl + COc1ccc(-c2ccc3c(N4CCOCC4)nc(N4C[C@@H](C)O[C@@H](C)C4)nc3n2)cc1CO [KU0063794] (first compound 10 µM, partner dose 0.1 µM)",66.1
2,"O=C(O)c1ccc2c(c1)nc(Nc1cccc(Cl)c1)c1ccncc12 + O=c1cc(-c2cccc3c2Sc2ccccc2S3)oc(N2CCOCC2)c1 [KU55933] (first compound 2 µM, partner dose 5 µM)",76.7
3,"O=C(O)c1ccc2c(c1)nc(Nc1cccc(Cl)c1)c1ccncc12 + c1cc(-c2cnn3cc(-c4ccc(OCCN5CCCCC5)cc4)cnc23)ccn1 [Dorsomorphin] (first compound 2 µM, partner dose 2 µM)",52.6
4,"Cn1nnc2c(C(N)=O)ncn2c1=O [temozolomide] + Cc1cc([N+](=O)[O-])ccc1NS(=O)(=O)c1cc(Cl)ccc1Cl [FH535] (first compound 10 µM, partner dose 5 µM)",78
5,"O=C(Nc1cc(C(F)(F)F)cc(C(F)(F)F)c1)c1cc(Cl)ccc1O + COc1ccc2c(c1)CCC1C2CCC2(C)C(NCCCCCCN3C(=O)C=CC3=O)CCC12 [U73122] (first compound 0.08 µM, partner dose 2 µM)",96.6
6,"Cc1cc(N2CCOCC2)cc2[nH]c(-c3c(NC[C@@H](O)c4cccc(Cl)c4)cc[nH]c3=O)nc12 + Oc1nc(-c2ccc(C(F)(F)F)cc2)nc2c1CSCC2 [XAV939] (first compound 1 µM, partner dose 10 µM)",85.4
7,"O=C(Nc1cc(C(F)(F)F)cc(C(F)(F)F)c1)c1cc(Cl)ccc1O + CC(=O)O[C@@]12CO[C@@H]1C[C@H](O)[C@@]1(C)C(=O)[C@H](O)C3=C(C)[C@@H](OC(=O)[C@H](O)[C@@H](NC(=O)OC(C)(C)C)c4ccccc4)C[C@@](O)([C@@H](OC(=O)c4ccccc4)[C@H]21)C3(C)C [Docetaxel] (first compound 0.08 µM, partner dose 0.0005 µM)",38.2
8,"O=C(Nc1ccccc1)c1cc([N+](=O)[O-])ccc1Cl + O=S(=O)(c1ccccc1)N(CC(F)(F)F)c1ccc(C(O)(C(F)(F)F)C(F)(F)F)cc1 [T0901317] (first compound 10 µM, partner dose 7 µM)",81.4
9,"O=C(Nc1cc(C(F)(F)F)cc(C(F)(F)F)c1)c1cc(Cl)ccc1O + CCc1ccc(CCOc2ccc(CC3SC(=O)NC3=O)cc2)nc1 [pioglitazone] (first compound 0.08 µM, partner dose 10 µM)",88.5
10,"Cn1nnc2c(C(N)=O)ncn2c1=O [temozolomide] + Oc1nc(-c2ccc(C(F)(F)F)cc2)nc2c1CSCC2 [XAV939] (first compound 10 µM, partner dose 10 µM)",58.8
11,"O=C(Nc1cc(C(F)(F)F)cc(C(F)(F)F)c1)c1cc(Cl)ccc1O + C[C@]1(c2nc3c(C(N)=O)cccc3[nH]2)CCCN1 [Veliparib] (first compound 0.08 µM, partner dose 7 µM)",78.8
12,"O=C(O)c1ccc2c(c1)nc(Nc1cccc(Cl)c1)c1ccncc12 + O=C(Nc1ccccc1)c1cc([N+](=O)[O-])ccc1Cl [GW9662] (first compound 2 µM, partner dose 10 µM)",50.9
13,"O=C(O)c1ccc2c(c1)nc(Nc1cccc(Cl)c1)c1ccncc12 + Cn1cc(/C=C2\C(=O)Nc3cccnc32)c2ccccc21 [GW441756] (first compound 2 µM, partner dose 2 µM)",88.8
14,"O=C(O)[C@@H]1[O][Sb](=[O])([O][Sb]2(=[O])[O][C@H]([C@H](O)CO)[C@H](O)[C@H](C(=O)O)[O]2)[O][C@H]([C@H](O)CO)[C@@H]1O (stereo partly specified) [stibogluconate] + COc1ccc2c(c1)CCC1C2CCC2(C)C(NCCCCCCN3C(=O)C=CC3=O)CCC12 [U73122] (first compound 10 µM, partner dose 2 µM)",87.2

# System: WM1716
# Assay: as above
# Conditions: library dose: standard library concentration; 72 h
row,Compound,cell count [%]
1,"O=C(Nc1cc(C(F)(F)F)cc(C(F)(F)F)c1)c1cc(Cl)ccc1O + Nc1ncn([C@H]2C[C@H](O)[C@@H](CO)O2)c(=O)n1 [decitabine] (first compound 0.08 µM, partner dose 0.5 µM)",89.9
2,"O=C(O)[C@@H]1[O][Sb](=[O])([O][Sb]2(=[O])[O][C@H]([C@H](O)CO)[C@H](O)[C@H](C(=O)O)[O]2)[O][C@H]([C@H](O)CO)[C@@H]1O (stereo partly specified) [stibogluconate] + N#Cc1c(O)c2c(-c3ccc(-c4ccccc4O)cc3)csc2[nH]c1=O [A769662] (first compound 10 µM, partner dose 10 µM)",108
3,"O=C(Nc1ccccc1)c1cc([N+](=O)[O-])ccc1Cl + Cc1cc([N+](=O)[O-])ccc1NS(=O)(=O)c1cc(Cl)ccc1Cl [FH535] (first compound 10 µM, partner dose 5 µM)",82.1
4,"O=C(Nc1cc(C(F)(F)F)cc(C(F)(F)F)c1)c1cc(Cl)ccc1O + Nc1ccn([C@@H]2O[C@H](CO)[C@@H](O)C2(F)F)c(=O)n1 [gemcitabine] (first compound 0.08 µM, partner dose 0.002 µM)",66.2
5,"O=C(Nc1cc(C(F)(F)F)cc(C(F)(F)F)c1)c1cc(Cl)ccc1O + C=CCn1c(=O)c2cnc(Nc3ccc(N4CCN(C)CC4)cc3)nc2n1-c1cccc(C(C)(C)O)n1 [MK1775] (first compound 0.08 µM, partner dose 0.1 µM)",96.6
6,"O=C(Nc1cc(C(F)(F)F)cc(C(F)(F)F)c1)c1cc(Cl)ccc1O + CCCCCCCCCCCC1=C(O)C(=O)C=C(O)C1=O [Embelin] (first compound 0.08 µM, partner dose 6 µM)",85.5
7,"Cn1nnc2c(C(N)=O)ncn2c1=O [temozolomide] + CCN(CC)CCCCNc1ncc2cc(-c3cc(OC)cc(OC)c3)c(NC(=O)NC(C)(C)C)nc2n1 [PD173074] (first compound 10 µM, partner dose 0.5 µM)",73.6
8,"O=C(O)[C@@H]1[O][Sb](=[O])([O][Sb]2(=[O])[O][C@H]([C@H](O)CO)[C@H](O)[C@H](C(=O)O)[O]2)[O][C@H]([C@H](O)CO)[C@@H]1O (stereo partly specified) [stibogluconate] + Nc1ncn([C@H]2C[C@H](O)[C@@H](CO)O2)c(=O)n1 [decitabine] (first compound 10 µM, partner dose 0.5 µM)",82.5
9,"O=C(O)c1ccc2c(c1)nc(Nc1cccc(Cl)c1)c1ccncc12 + C=CCn1c(=O)c2cnc(Nc3ccc(N4CCN(C)CC4)cc3)nc2n1-c1cccc(C(C)(C)O)n1 [MK1775] (first compound 2 µM, partner dose 0.1 µM)",79.6
10,"O=C(O)c1ccc2c(c1)nc(Nc1cccc(Cl)c1)c1ccncc12 + COc1cc(N2CCC(N3CCN(C)CC3)CC2)ccc1Nc1ncc(Cl)c(Nc2ccccc2S(=O)(=O)C(C)C)n1 [NVP-TAE684] (first compound 2 µM, partner dose 0.4 µM)",64.7
11,"O=C(O)c1ccc2c(c1)nc(Nc1cccc(Cl)c1)c1ccncc12 + Cc1cc([N+](=O)[O-])ccc1NS(=O)(=O)c1cc(Cl)ccc1Cl [FH535] (first compound 2 µM, partner dose 5 µM)",76.7
12,"O=C(Nc1cc(C(F)(F)F)cc(C(F)(F)F)c1)c1cc(Cl)ccc1O + Cn1c(Nc2ccc(C(F)(F)F)cc2)nc2cc(Oc3ccnc(-c4ncc(C(F)(F)F)[nH]4)c3)ccc21 [CHIR265] (first compound 0.08 µM, partner dose 0.4 µM)",66.2
13,"O=C(O)[C@@H]1[O][Sb](=[O])([O][Sb]2(=[O])[O][C@H]([C@H](O)CO)[C@H](O)[C@H](C(=O)O)[O]2)[O][C@H]([C@H](O)CO)[C@@H]1O (stereo partly specified) [stibogluconate] + COc1cc2ncnc(Nc3ccc(Oc4ccccc4)cc3)c2cc1OC [SrcI1] (first compound 10 µM, partner dose 10 µM)",66.7
14,"O=C(O)c1ccc2c(c1)nc(Nc1cccc(Cl)c1)c1ccncc12 + C#Cc1cccc(Nc2ncnc3cc(OCCOC)c(OCCOC)cc23)c1 [erlotinib] (first compound 2 µM, partner dose 4 µM)",81
15,"Cc1cc(N2CCOCC2)cc2[nH]c(-c3c(NC[C@@H](O)c4cccc(Cl)c4)cc[nH]c3=O)nc12 + Oc1cc(-c2nc(-c3ccccc3)[nH]c2-c2ccncc2)ccc1Cl [L779450] (first compound 1 µM, partner dose 1 µM)",73.5
16,"O=C(O)[C@@H]1[O][Sb](=[O])([O][Sb]2(=[O])[O][C@H]([C@H](O)CO)[C@H](O)[C@H](C(=O)O)[O]2)[O][C@H]([C@H](O)CO)[C@@H]1O (stereo partly specified) [stibogluconate] + O=S(=O)(c1ccccc1)N(CC(F)(F)F)c1ccc(C(O)(C(F)(F)F)C(F)(F)F)cc1 [T0901317] (first compound 10 µM, partner dose 7 µM)",100
17,"O=C(O)[C@@H]1[O][Sb](=[O])([O][Sb]2(=[O])[O][C@H]([C@H](O)CO)[C@H](O)[C@H](C(=O)O)[O]2)[O][C@H]([C@H](O)CO)[C@@H]1O (stereo partly specified) [stibogluconate] + Cn1cncc1[C@@](N)(c1ccc(Cl)cc1)c1ccc2c(c1)c(-c1cccc(Cl)c1)cc(=O)n2C [tipifarnib] (first compound 10 µM, partner dose 0.05 µM)",68
